# Assay results published in PubChem BioAssay AID889 (National Center for Advancing Translational Sciences (NCATS), 2007).
# The campaign covered roughly 75,000 compounds. About 15 (0.02%) were called active. The shares of active, inactive and inconclusive entries below differ from those in the screen. Calls come from the whole dose curve; as a rule, active = well fitted inhibition curve with a large enough effect in the main read-out, with a control signal flat (not every such curve was filed as active); inconclusive = small, poorly fitted or top-dose-only effect, or a change in a side signal; inactive = flat fitted curve, though single readings scatter. Potencies of inconclusive entries are doubtful fits and often do not repeat. “Side channel” marks fits to a control or component signal instead of the main read-out.
# Molecular target: Caspase-7 (Homo sapiens) (UniProt P55210)
# UniProt P55210, sequence (P55210 whole entry, looked up): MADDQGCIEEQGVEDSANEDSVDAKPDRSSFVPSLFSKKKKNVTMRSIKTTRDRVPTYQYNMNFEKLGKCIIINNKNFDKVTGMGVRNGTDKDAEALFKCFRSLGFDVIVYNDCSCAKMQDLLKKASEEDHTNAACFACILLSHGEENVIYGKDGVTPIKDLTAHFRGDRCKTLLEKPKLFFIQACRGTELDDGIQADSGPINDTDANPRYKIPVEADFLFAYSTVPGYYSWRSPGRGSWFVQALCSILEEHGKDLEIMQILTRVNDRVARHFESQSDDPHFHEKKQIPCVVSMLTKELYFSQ
# Assay: qHTS Assay for Allosteric/Competitive Inhibitors of Caspase-7; for activity change, negative = inhibition: % of control where 0% means no effect
# Conditions: recombinant caspase-7, Ac-DEVD-AFC fluorescence rate; activity change, negative = inhibition: at 57.5 µM (top of the series) unless noted
# Potency is the fitted concentration of half-maximal effect; tags give direction and shape of the fitted curve or compound fluorescence and quenching.
Structure (SMILES),Potency,"activity change, negative = inhibition"
COc1cccc(Cn2c(=O)c(-c3ccc(Cl)cc3)nc3cnc(N4CCOCC4)nc32)c1,"inconclusive: 0.631 µM [fluorescent, side channel, partial curve]",–
N=c1oc2ccc3ccccc3c2cc1-c1nnc2n1CCCCC2,"inconclusive: 12.6 µM [fluorescent, partial curve]",–
CCC1Oc2nc(SC)nnc2-c2ccccc2N1C(=O)c1ccccc1 (centres undefined),"inconclusive: 25.1 µM [fluorescent, partial curve]",–
COc1cc(C(=O)NCCCCCC(=O)O)cc(OC)c1OC,inactive,–
COc1ncc2nc(-c3ccccc3)c(=O)n(CCc3ccccc3)c2n1,"inconclusive: 31.6 µM [inhibitor, single point]",–
COc1ccc(-c2nc3cnc(OC)nc3n(Cc3cccc(OC)c3)c2=O)cc1,"inconclusive: 3.98 µM [fluorescent, full curve]",–
CS(=O)(=O)N1CCC(C(=O)Nc2ccc(Oc3ccccc3)cc2)CC1,inactive,–
COc1ccc(-c2nc3cnc(N4CCN(C)CC4)nc3n(Cc3cccs3)c2=O)cc1,"inconclusive: 12.6 µM [fluorescent, partial curve]",–
CCNC(=O)c1cc2c(=O)n3cccc(C)c3nc2n(Cc2ccc(C)cc2)c1=N,"inconclusive: 1.58 µM [fluorescent, side channel, full curve]",–
CC(=O)OCC1OC(Oc2cc(OC(C)=O)c3c(=O)cc(-c4ccc(OC(C)=O)c(OC(C)=O)c4)oc3c2)C(OC(C)=O)C(OC(C)=O)C1OC(C)=O (centres undefined),"inconclusive: 31.6 µM [inhibitor, partial curve]",–
COC(=O)C1=CN(CC2CCCO2)C=C(C(=O)OC)C1c1ccsc1 (centres undefined),"inconclusive: 12.6 µM [fluorescent, side channel, partial curve]",–
CC(=O)[C@@H]1[C@H]2[C@H](C(=O)[C@H]3OC[C@@H]2O3)[C@H]2C=Cc3ccccc3N21,"inconclusive: 31.6 µM [inhibitor, partial curve]",–
O=C(NC1CCN(Cc2ccccc2)CC1)C1CCCN(S(=O)(=O)c2cccc3nonc23)C1 (centres undefined),inactive,–
COc1cccc(C2=CC(c3ccc(C)cc3)n3ncnc3N2)c1 (centres undefined),"inconclusive: 25.1 µM [fluorescent, side channel, partial curve]",–
CCNc1ncc2nc(-c3cccs3)c(=O)n(CCC#N)c2n1,"inconclusive: 1.26 µM [fluorescent, side channel, full curve]",–
COC(=O)NC(/C(C(=O)OC)=C(\C)NCc1ccccc1)c1ccc(F)cc1 (centres undefined),–,inactive: -2.67% [at 11.5 µM]
CC1=C(/C=C/C(C)=C/C=C/C(C)=C/C(=O)O)C(C)(C)CCC1,inactive,–
CN1CCN(c2ncc3nc(-c4ccccc4)c(=O)n(Cc4cccs4)c3n2)CC1,"inconclusive: 15.8 µM [fluorescent, partial curve]",–
COCCn1c(=O)c(-c2ccc(OC)cc2)nc2cnc(Nc3cccc(OC)c3)nc21,"inconclusive: 3.98 µM [fluorescent, side channel, partial curve]",–
CCCCn1c(NC(C)=O)c(C#N)c2nc3ccccc3nc21,"inconclusive: 10 µM [fluorescent, side channel, partial curve]",–

Structure (SMILES),Potency,"activity change, negative = inhibition"
Cc1ccccc1C(=O)OCn1nnc2ccccc2c1=O,"inconclusive: 25.1 µM [fluorescent, partial curve]",–
CCN(CC)c1ccc2c(C)cc(=O)oc2c1,"inconclusive: 12.6 µM [fluorescent, side channel, partial curve]",–
O=c1cc(-c2ccccc2)[nH]c2nc3ccccc3n12,inactive,–
COc1ccc(C2C=C(c3ccc(C)c(C)c3)Nc3ncnn32)c(OC)c1OC (centres undefined),"inconclusive: 15.8 µM [fluorescent, side channel, partial curve]",–
O=C(Nc1ccon1)c1cc2c(s1)CCCCCC2,inactive,–
Cc1cc(=O)oc2cc(O)cc(O)c12,"inconclusive: 25.1 µM [fluorescent, partial curve]",–
Nn1c(-c2cccs2)nc2sc3c(c2c1=O)CCCC3,"inconclusive: 39.8 µM [fluorescent, side channel, single point]",–
N#CCCn1c(=O)c(-c2cccc(C#N)c2)nc2cnc(Oc3cccc(Cl)c3)nc21,"inconclusive: 25.1 µM [fluorescent, partial curve]",–
CCc1ccccc1NS(=O)(=O)c1cc(C)ccc1OC,"inconclusive: 15.8 µM [fluorescent, side channel, partial curve]",–
CN(C)c1ncc2nc(-c3ccccc3)c(=O)n(CCc3ccccc3)c2n1,"inconclusive: 2 µM [fluorescent, side channel, full curve]",–
CN(C)c1ncc2ncc(=O)n(C)c2n1,"inconclusive: 20 µM [fluorescent, side channel, partial curve]",–
COc1cccc(Cn2c(=O)c(-c3cn(C)c4ccccc34)nc3cncnc32)c1,"inconclusive: 3.98 µM [inhibitor, partial curve]",–
CC(C)C(NS(=O)(=O)c1ccc2c3c(cccc13)C(=O)N2)C(=O)O (centres undefined),"inconclusive: 25.1 µM [fluorescent, side channel, partial curve]",–
O=C(c1ccc(N2CCCCS2(=O)=O)cc1)N1CCN(c2ccc(N3CCOCC3)nn2)CC1,"inconclusive: 25.1 µM [inhibitor, single point]",–
COc1ccc(-c2nc3cnc(OC)nc3n(C)c2=O)cc1,"inconclusive: 25.1 µM [inhibitor, partial curve]",–
COc1ccc(C2CC(=O)N3CN(c4ccc(C)c(Cl)c4)CSC3=C2C#N)cc1OC (centres undefined),"inconclusive: 31.6 µM [inhibitor, single point]",–
Cc1c(Cc2ccccc2)c(=O)oc2cc(OCc3nn[nH]n3)ccc12,inactive,–
COc1ccc(-n2c(=O)c(C)nc3cnc(Nc4ccccc4)nc32)cc1,"inconclusive: 25.1 µM [fluorescent, side channel, single point]",–
CCC(=O)c1cc2c(cc1NC(=O)c1cccs1)OCCO2,"inconclusive: 31.6 µM [inhibitor, single point]",–
